In PubChem BioAssay AID720542 (National Center for Advancing Translational Sciences (NCATS), 2013):
The whole screen tested about 360,000 compounds, of which about 740 (0.21%) were called active. The inconclusive results got no clear call from the source; some entries with a clear call stand among them for comparison. Calls come from the whole dose curve; as a rule, active = well fitted inhibition curve with a large enough effect; inconclusive = small, poorly fitted or top-dose-only effect; inactive = no such curve, though single readings can be large or run the other way. Potencies of inconclusive entries are left out as doubtful fits.

Each compound was assayed on Plasmodium falciparum AMA1 (3D7) - RON2 peptide interaction (assay: qHTS for Inhibitors of AMA1-RON; Towards Development of Antimalarial Drug Lead: Primary Screen). Details: AlphaScreen AMA1-biotinylated RON2 peptide binding; series mostly up to 58.2 µM.
From the text: Plasmodium, the causative agent of malaria, is one of the world's deadliest parasitic diseases. Currently there is no vaccine available and there is widespread resistance to common anti-malarial drugs. This warrants novel, alternative approaches for developing improved therapy. During infection, one such essential interaction is between two parasite proteins, the apical membrane antigen1 (AMA1) that is translocated onto the merozoite surface and the rhoptry neck protein 2 (RON2), which is transferred to the red blood cells (RBC) membrane during invasion (Besteiro et.al., 2009). Recently, the Miller lab has shown that the interaction between AMA1 and RON2 is essential for junction formation of the parasite with the host cell (Srinivasan et.al., 2011). The binding of the RON2 peptide to the hydrophobic pocket in AMA triggers the formation of the moving junction which provides a firm anchor for the parasite to pull itself into the RBC using its actin-myosin motor; an irreversible step that commits the parasite for invasion. Only one AMA1 and RON2 genes exists in Plasmodium and there are no alternate pathways. Moreover, the region corresponding to RON2 peptide is conserved in all P. falciparum isolates for which sequences are available. The key residues in the AMA1 hydrophobic pocket that binds RON2 are also conserved and indicate a functional constraint governing this essential step in invasion since a short RON2 peptide (RON2L) corresponding to the binding region on AMA1 is sufficient to compete with the native RON2 protein and inhibits invasion (Tonkin et.al, 2011). Therefore, developing small molecule inhibitors of this interaction offers a promising target opening a new arena for anti-malarial therapeutics drug design.
In collaboration with the Miller lab, a quantitative High Throughput Screen using the AlphScreen technology was developed using a recombinant his-tagged AMA1 and a biotinylated RON2 peptide. This fluorescent screen was assayed against the NIH Molecular Libraries Small Molecule Repository (MLSMR). Inhibition of this protein-protein interaction is the desired outcome of this assay. However, due the limitations of this AlphaScreen assay, a large number of artifacts were observed. An AlphaScreen counterscreen was run to identify the true inhibitors, triage compound activity, and weed out false positives.
NIH Chemical Genomics Center [NCGC]
NIH Molecular Libraries Probe Centers Network [MLPCN]
Assay Submitter (PI): Louis Miller, National Institute of Allergy and Infectious Disease (NIAID)
Two microliters of his-tagged AMA1 3D7 allele protein (final concentration 25 nM) was dispensed into a 1,536-well assay plate. Small molecules and positive control peptides were pin-transferred (23 nL or 46 nL) via Kalypsys pin-tool equipped with a 1,536-pin array, resulting in final compound and peptide concentration ranges of 91.5 nM - 57.2 µM, and 15.6 nM - 2.00 µM, respectively. Unlabeled RON2 peptide or R1 peptide ([…]) that specifically binds the 3D7 AMA1 was used as a positive control that inhibited the binding of RON2L to AMA1. After 15 minutes incubation, 1 uL of biotinylated RON2 peptide (final concentration 25 nM) or buffer were dispensed and the assay plate was incubated for an additional 30 minutes at room temperature and protected from light. This was followed by an addition of 1 uL mixture of donor and acceptor beads (10 ug/mL final concentrations for each). The plates were incubated for 30 min at room temperature and read using the EnVision(R) plate reader (PerkinElmer). Maximum inhibition response was normalized to the positive control signal while no inhibition response was normalized to the DMSO treated wells.
Note: nearly all actives have a fitted effect of over 45% in size.
Potency is the fitted concentration of half-maximal effect; tags give direction and shape of the fitted curve.

Structure (SMILES)	Potency
CN1CCN(c2ccc(N)cc2Cl)CC1	inconclusive [inhibitor, single point]
COC(=O)C1=C(C)NC(C)=C(C(=O)O[C@@H]2CCCN(Cc3ccccc3)C2)[C@@H]1c1cccc([N+](=O)[O-])c1	inconclusive [inhibitor, single point]
O=[N+]([O-])c1ccc(N2CCCC2)nc1N1CCCC1	inconclusive [inhibitor, partial curve]
Cc1ccc(NC(=O)COC(=O)c2ccc(OC(F)F)cc2)cc1S(=O)(=O)N1CCCCC1	inactive
CC(C)CCC1(C)NC(=O)N(CC(=O)c2ccc[nH]2)C1=O (centres undefined)	inconclusive [inhibitor, partial curve]
COc1ccc(C(C#N)=C2C=CC(=NO)C=C2)cc1	active: 15.8 µM
CC1=C(C(=O)Nc2ccc(F)cc2)C(c2ccncc2)C2=C(CCCC2=O)N1 (centres undefined)	inconclusive [inhibitor, single point]
CCN1C(=O)[C@@H]2[C@@H](c3ccc(-c4ccc(Cl)c(Cl)c4)c(OC)c3)N3CCC[C@@]3(C(=O)OC)[C@@H]2C1=O	inconclusive [inhibitor, single point]
CC(=O)/C=C(\C)Nc1ccccc1O	inconclusive [inhibitor, single point]
N#C/C(C(N)=O)=C1/SC=C(c2ccccc2)N1c1ccccc1	inconclusive [inhibitor, full curve]
COc1ccccc1CNCC(=O)N1CC(=O)Nc2ccccc21	inconclusive [inhibitor, partial curve]
COc1ccccc1Oc1ccc(N/C=C/C(=O)C(C)(C)C)cc1	inconclusive [inhibitor, partial curve]
O=C(N/N=C/C1=C(N2CCOCC2)C(=C\c2ccccc2)/CC1)Nc1ccccc1	inconclusive [inhibitor, single point]
CNc1nc(-c2ccccn2)nnc1-c1ccccc1	inactive
COc1ccc(-n2nnnc2C(c2cccc3ccccc23)N2CCN(C/C=C/c3ccccc3)CC2)cc1 (centres undefined)	inconclusive [inhibitor, partial curve]
O=C(NC1CC1)c1ccc2c(c1)ncn2C1CCCC1	inconclusive [inhibitor, single point]
O=C(COC(=O)/C=C/c1cccc(C(F)(F)F)c1)NCc1ccccc1	inactive
COc1cc(C2C(C(C)=O)=C(O)C(=O)N2CCc2c[nH]c3ccccc23)ccc1O (centres undefined)	inconclusive [inhibitor, single point]
Cc1ccc(NC(=O)COC(=O)Cn2cnc3c2c(=O)n(C)c(=O)n3C)cc1	inactive
C=C1N(C)c2cc([N+](=O)[O-])c(N)cc2C1(C)C	inconclusive [inhibitor, single point]
C=CCSc1nsc(N)n1	inconclusive [inhibitor, partial curve]
CC(C)c1onc(C(=O)NC2CCCCC2)c1[N+](=O)[O-]	inconclusive [inhibitor, single point]

Structure (SMILES)	Potency
COC(=O)C1=C(C(=O)OC)SC(=C2C(=S)C(C)(C)N(C(=O)C3CC3)c3ccccc32)S1	inconclusive [inhibitor, full curve]
COc1ccc(NC2=Nc3cccc4cccc2c34)cc1	inconclusive [inhibitor, partial curve]
CCc1nc2ccc(C(=O)NCCCn3ccnc3)cn2c1N(C)Cc1ccc(N(C)C)cc1	inconclusive [inhibitor, partial curve]
O=C(CSc1n[nH]c(-c2cccs2)n1)N1CCN(S(=O)(=O)c2ccc3ccccc3c2)CC1	inactive
COc1cccc(-c2sc3ccc(OC)cc3c2-c2ccc(OCCN3CCCC3)cc2)c1	inconclusive [inhibitor, single point]
Cn1nnnc1SCCNCc1ccccc1OCc1ccc(Cl)cc1	inconclusive [inhibitor, partial curve]
Nc1nc(NCc2ccco2)nc(N2CCCCCC2)c1[N+](=O)[O-]	inconclusive [inhibitor, partial curve]
CC1=C(C(=O)Nc2ccccc2C(=O)NC2CCCCC2)SCCO1	inactive
CC[n+]1c(/C=C2\C=C(C)CC(C)(C)C2)sc2ccccc21	inconclusive [inhibitor, partial curve]
Cc1cc(C)n(-c2ccc(Cl)c(C(=O)O)c2)n1	inactive
COc1ccc(N2CCN(C(=O)c3ccccc3NS(=O)(=O)c3ccc(C)cc3)CC2)cc1	inconclusive [inhibitor, partial curve]
Cc1ccc(NNC(=O)c2ccno2)cc1Cl	inconclusive [inhibitor, partial curve]
COc1cc(OC)cc(C(=O)N2CCN(Cc3ccccc3Br)CC2)c1	inconclusive [inhibitor, single point]
CC(C)(C)NC(=O)c1ccc2c(c1)C(=O)N(C1CCCCC1)C2=O	inactive
COc1cc(NC(=O)CSc2ncnc3c2cnn3Cc2ccccc2)cc(OC)c1	inconclusive [inhibitor, partial curve]
COc1ccc(/C=N/Nc2cc(C)nc(N3CCOCC3)n2)cc1	inactive
CC(=O)Nc1ccc2nc3c(=O)n(C)c(=O)n(C)c3nc2c1	inconclusive [inhibitor, full curve, poor fit]
Cc1ccsc1/C=C1/SC(N2CC(C)OC(C)C2)=NC1=O (centres undefined)	inconclusive [inhibitor, full curve]
CN1OC[C@@H]2CN(Cc3ccc(Cl)cc3)[C@H](c3ccc(N4CCCCC4)cc3)C[C@@H]21	active: 15.8 µM
Cc1ccc2c(Cl)cc(Cl)c(OCC(=O)NC(=O)NCc3ccco3)c2n1	inactive
CC(C)=CCCC(C)CN1CCC(n2nccc2NC(=O)c2ccc3c(c2)OCO3)CC1 (centres undefined)	inactive
CC(=O)Nc1nc(-c2cc([N+](=O)[O-])cs2)cs1	inactive
